Patent publication US20220411483A1 (Chugai, published 2022)

Assays:
[1] = target: T1, FcγRIa extracellular domain, His tag (human, UniProt P12314 16-292); test: SPR, KD ratio
T1 construct: whole entry named; also called FcgRIa

[2] = target: T2, FcγRIIa R type extracellular domain, His tag (human, UniProt P12318 34-217); test: SPR, KD ratio
T2 construct: extracellular domain; also called FcgRIIaR
T2 sequence (looked up): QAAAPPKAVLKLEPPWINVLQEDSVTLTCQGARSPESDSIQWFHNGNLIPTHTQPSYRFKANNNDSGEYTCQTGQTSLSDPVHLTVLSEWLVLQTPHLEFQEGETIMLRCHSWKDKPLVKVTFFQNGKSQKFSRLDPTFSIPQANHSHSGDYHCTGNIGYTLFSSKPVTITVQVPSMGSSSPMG

[3] = target: T3, FcγRIIa H type extracellular domain, His tag (human, UniProt P12318 34-217); test: SPR, KD ratio
T3 construct: extracellular domain; also called FcgRIIaH
T3 sequence (looked up): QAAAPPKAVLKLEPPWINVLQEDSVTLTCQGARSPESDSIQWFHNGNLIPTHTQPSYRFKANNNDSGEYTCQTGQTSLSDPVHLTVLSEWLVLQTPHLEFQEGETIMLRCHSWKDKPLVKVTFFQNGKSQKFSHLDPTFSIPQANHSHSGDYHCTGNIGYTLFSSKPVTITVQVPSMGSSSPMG

[4] = target: T4, FcγRIIb extracellular domain, His tag (human, UniProt P31994 43-217); test: SPR, KD ratio
T4 construct: extracellular domain; also called FcgRIIb
T4 sequence (looked up): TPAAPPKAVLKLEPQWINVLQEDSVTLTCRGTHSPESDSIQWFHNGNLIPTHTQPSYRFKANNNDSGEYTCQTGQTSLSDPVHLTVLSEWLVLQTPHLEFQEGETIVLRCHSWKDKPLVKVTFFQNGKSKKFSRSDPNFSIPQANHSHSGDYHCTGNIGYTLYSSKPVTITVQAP

[5] = target: T5, FcγRIIIa V type extracellular domain, His tag (human, UniProt P08637 part only); test: SPR, KD ratio
T5 construct: extracellular domain; also called FcgRIIIaV
T5 sequence (P08637 17-208 F176V): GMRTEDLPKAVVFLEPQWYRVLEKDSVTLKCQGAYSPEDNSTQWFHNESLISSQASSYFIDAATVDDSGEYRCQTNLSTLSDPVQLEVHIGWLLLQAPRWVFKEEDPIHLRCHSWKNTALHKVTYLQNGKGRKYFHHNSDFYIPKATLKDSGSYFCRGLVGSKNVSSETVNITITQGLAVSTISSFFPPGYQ

[6] = target: T1, FcγRIa extracellular domain, His tag; test: SPR kinetics, antibody captured
T1 sequence (P12314 16-292): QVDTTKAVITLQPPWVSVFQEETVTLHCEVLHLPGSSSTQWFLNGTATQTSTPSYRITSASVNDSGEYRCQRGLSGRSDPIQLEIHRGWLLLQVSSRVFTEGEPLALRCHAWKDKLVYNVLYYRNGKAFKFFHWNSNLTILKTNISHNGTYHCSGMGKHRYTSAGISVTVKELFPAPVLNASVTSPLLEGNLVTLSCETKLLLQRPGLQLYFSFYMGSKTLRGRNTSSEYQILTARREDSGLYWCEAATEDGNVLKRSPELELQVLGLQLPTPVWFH

[7] = target: T4, FcγRIIb extracellular domain, His tag; test: SPR kinetics, antibody captured
[8] = target: T2, FcγRIIa R type extracellular domain, …; test: SPR, bound amount per captured antibody
[9] = target: T4, FcγRIIb extracellular domain, His tag; test: SPR, bound amount per captured antibody

B1: IL6R-P589/IL6R-L (antibody, human IgG1, kappa)
heavy: QVQLQESGPGLVKPSETLSLTCAVSGHSISHDHAWSWVRQPPGEGLEWIGFISYSGITNYNPSLQGRVTISRDNSKNTLYLQMNSLRAEDTAVYYCARSLARTTAMDYWGEGTLVTVSS[human IgG1 constant region with P238D Y296E (EU numbers) not shown]
light: DIQMTQSPSSLSASVGDRVTITCRASQDISSYLNWYQQKPGKAPKLLIYYTSRLHSGVPSRFSGSGSGTDFTFTISSLQPEDIATYYCQQGNTLPYTFGQGTKVEIKRTVAAPSVFIFPPSDEQLKSGTASVVCLLNNFYPREAKVQWKVDNALQSGNSQESVTEQDSKDSTYSLSSTLTLSKADYEKHKVYACEVTHQGLSSPVTKSFNRGEC
[1]
  Relative FcgRIa-binding Activity: 0.033 fold of IL6R-G1d/IL6R-L
[2]
  Relative FcgRIIaR-binding Activity: 0.046 fold of IL6R-G1d/IL6R-L
[3]
  Relative FcgRIIaH-binding Activity: 0.012 fold of IL6R-G1d/IL6R-L
[4]
  Relative FcgRIIb-binding Activity: 2.86 fold of IL6R-G1d/IL6R-L
[5]
  Relative FcgRIIIaV-binding Activity: 0.008 fold of IL6R-G1d/IL6R-L
[6]
  Kd: 10 nM
[7]
  Kd: 1800 nM
[8]
  Relative FcgRIIaR-binding Activity: 27 % of IL6R-G1d/IL6R-L
[9]
  Relative FcgRIIb-binding Activity: 142 % of IL6R-G1d/IL6R-L

B2: IL6R-P590/IL6R-L (antibody, human IgG1, kappa)
heavy: QVQLQESGPGLVKPSETLSLTCAVSGHSISHDHAWSWVRQPPGEGLEWIGFISYSGITNYNPSLQGRVTISRDNSKNTLYLQMNSLRAEDTAVYYCARSLARTTAMDYWGEGTLVTVSS[human IgG1 constant region with P238D F241M (EU numbers) not shown]
light: DIQMTQSPSSLSASVGDRVTITCRASQDISSYLNWYQQKPGKAPKLLIYYTSRLHSGVPSRFSGSGSGTDFTFTISSLQPEDIATYYCQQGNTLPYTFGQGTKVEIKRTVAAPSVFIFPPSDEQLKSGTASVVCLLNNFYPREAKVQWKVDNALQSGNSQESVTEQDSKDSTYSLSSTLTLSKADYEKHKVYACEVTHQGLSSPVTKSFNRGEC
[1]
  Relative FcgRIa-binding Activity: 0.0194 fold of IL6R-G1d/IL6R-L
[2]
  Relative FcgRIIaR-binding Activity: 0.034 fold of IL6R-G1d/IL6R-L
[3]
  Relative FcgRIIaH-binding Activity: 0.011 fold of IL6R-G1d/IL6R-L
[4]
  Relative FcgRIIb-binding Activity: 1.84 fold of IL6R-G1d/IL6R-L
[5]
  Relative FcgRIIIaV-binding Activity: 0.005 fold of IL6R-G1d/IL6R-L
[6]
  Kd: 17 nM
[7]
  Kd: 2800 nM
[8]
  Relative FcgRIIaR-binding Activity: 20.6 % of IL6R-G1d/IL6R-L
[9]
  Relative FcgRIIb-binding Activity: 126 % of IL6R-G1d/IL6R-L

B3: IL6R-P595/IL6R-L (antibody, human IgG1, kappa)
heavy: QVQLQESGPGLVKPSETLSLTCAVSGHSISHDHAWSWVRQPPGEGLEWIGFISYSGITNYNPSLQGRVTISRDNSKNTLYLQMNSLRAEDTAVYYCARSLARTTAMDYWGEGTLVTVSS[human IgG1 constant region with P238D Q295V (EU numbers) not shown]
light: DIQMTQSPSSLSASVGDRVTITCRASQDISSYLNWYQQKPGKAPKLLIYYTSRLHSGVPSRFSGSGSGTDFTFTISSLQPEDIATYYCQQGNTLPYTFGQGTKVEIKRTVAAPSVFIFPPSDEQLKSGTASVVCLLNNFYPREAKVQWKVDNALQSGNSQESVTEQDSKDSTYSLSSTLTLSKADYEKHKVYACEVTHQGLSSPVTKSFNRGEC
[2]
  Relative FcgRIIaR-binding Activity: 0.039 fold of IL6R-G1d/IL6R-L
[3]
  Relative FcgRIIaH-binding Activity: 0.01 fold of IL6R-G1d/IL6R-L
[4]
  Relative FcgRIIb-binding Activity: 2.31 fold of IL6R-G1d/IL6R-L
[5]
  Relative FcgRIIIaV-binding Activity: 0.005 fold of IL6R-G1d/IL6R-L
[7]
  Kd: 2200 nM
[8]
  Relative FcgRIIaR-binding Activity: 23.5 % of IL6R-G1d/IL6R-L
[9]
  Relative FcgRIIb-binding Activity: 112 % of IL6R-G1d/IL6R-L

B4: IL6R-P596/IL6R-L (antibody, human IgG1, kappa)
heavy: QVQLQESGPGLVKPSETLSLTCAVSGHSISHDHAWSWVRQPPGEGLEWIGFISYSGITNYNPSLQGRVTISRDNSKNTLYLQMNSLRAEDTAVYYCARSLARTTAMDYWGEGTLVTVSS[human IgG1 constant region with P238D Q295M (EU numbers) not shown]
light: DIQMTQSPSSLSASVGDRVTITCRASQDISSYLNWYQQKPGKAPKLLIYYTSRLHSGVPSRFSGSGSGTDFTFTISSLQPEDIATYYCQQGNTLPYTFGQGTKVEIKRTVAAPSVFIFPPSDEQLKSGTASVVCLLNNFYPREAKVQWKVDNALQSGNSQESVTEQDSKDSTYSLSSTLTLSKADYEKHKVYACEVTHQGLSSPVTKSFNRGEC
[8]
  Relative FcgRIIaR-binding Activity: 32.2 % of IL6R-G1d/IL6R-L
[9]
  Relative FcgRIIb-binding Activity: 144 % of IL6R-G1d/IL6R-L

B5: IL6R-P598/IL6R-L (antibody, human IgG1, kappa)
heavy: QVQLQESGPGLVKPSETLSLTCAVSGHSISHDHAWSWVRQPPGEGLEWIGFISYSGITNYNPSLQGRVTISRDNSKNTLYLQMNSLRAEDTAVYYCARSLARTTAMDYWGEGTLVTVSS[human IgG1 constant region with P238D Y296N (EU numbers) not shown]
light: DIQMTQSPSSLSASVGDRVTITCRASQDISSYLNWYQQKPGKAPKLLIYYTSRLHSGVPSRFSGSGSGTDFTFTISSLQPEDIATYYCQQGNTLPYTFGQGTKVEIKRTVAAPSVFIFPPSDEQLKSGTASVVCLLNNFYPREAKVQWKVDNALQSGNSQESVTEQDSKDSTYSLSSTLTLSKADYEKHKVYACEVTHQGLSSPVTKSFNRGEC
[8]
  Relative FcgRIIaR-binding Activity: 31.6 % of IL6R-G1d/IL6R-L
[9]
  Relative FcgRIIb-binding Activity: 149 % of IL6R-G1d/IL6R-L

B6: IL6R-P599/IL6R-L (antibody, human IgG1, kappa)
heavy: QVQLQESGPGLVKPSETLSLTCAVSGHSISHDHAWSWVRQPPGEGLEWIGFISYSGITNYNPSLQGRVTISRDNSKNTLYLQMNSLRAEDTAVYYCARSLARTTAMDYWGEGTLVTVSS[human IgG1 constant region with P238D V323I (EU numbers) not shown]
light: DIQMTQSPSSLSASVGDRVTITCRASQDISSYLNWYQQKPGKAPKLLIYYTSRLHSGVPSRFSGSGSGTDFTFTISSLQPEDIATYYCQQGNTLPYTFGQGTKVEIKRTVAAPSVFIFPPSDEQLKSGTASVVCLLNNFYPREAKVQWKVDNALQSGNSQESVTEQDSKDSTYSLSSTLTLSKADYEKHKVYACEVTHQGLSSPVTKSFNRGEC
[8]
  Relative FcgRIIaR-binding Activity: 30.9 % of IL6R-G1d/IL6R-L
[9]
  Relative FcgRIIb-binding Activity: 149 % of IL6R-G1d/IL6R-L

B7: IL6R-P601/IL6R-L (antibody, human IgG1, kappa)
heavy: QVQLQESGPGLVKPSETLSLTCAVSGHSISHDHAWSWVRQPPGEGLEWIGFISYSGITNYNPSLQGRVTISRDNSKNTLYLQMNSLRAEDTAVYYCARSLARTTAMDYWGEGTLVTVSS[human IgG1 constant region with P238D S298M (EU numbers) not shown]
light: DIQMTQSPSSLSASVGDRVTITCRASQDISSYLNWYQQKPGKAPKLLIYYTSRLHSGVPSRFSGSGSGTDFTFTISSLQPEDIATYYCQQGNTLPYTFGQGTKVEIKRTVAAPSVFIFPPSDEQLKSGTASVVCLLNNFYPREAKVQWKVDNALQSGNSQESVTEQDSKDSTYSLSSTLTLSKADYEKHKVYACEVTHQGLSSPVTKSFNRGEC
[1]
  Relative FcgRIa-binding Activity: 0.0825 fold of IL6R-G1d/IL6R-L
[2]
  Relative FcgRIIaR-binding Activity: 0.048 fold of IL6R-G1d/IL6R-L
[3]
  Relative FcgRIIaH-binding Activity: 0.01 fold of IL6R-G1d/IL6R-L
[5]
  Relative FcgRIIIaV-binding Activity: 0.006 fold of IL6R-G1d/IL6R-L
[6]
  Kd: 4 nM
[8]
  Relative FcgRIIaR-binding Activity: 27.3 % of IL6R-G1d/IL6R-L

B8: IL6R-P718/IL6R-L (antibody, human IgG1, kappa)
heavy: QVQLQESGPGLVKPSETLSLTCAVSGHSISHDHAWSWVRQPPGEGLEWIGFISYSGITNYNPSLQGRVTISRDNSKNTLYLQMNSLRAEDTAVYYCARSLARTTAMDYWGEGTLVTVSS[human IgG1 constant region with P238D H268P (EU numbers) not shown]
light: DIQMTQSPSSLSASVGDRVTITCRASQDISSYLNWYQQKPGKAPKLLIYYTSRLHSGVPSRFSGSGSGTDFTFTISSLQPEDIATYYCQQGNTLPYTFGQGTKVEIKRTVAAPSVFIFPPSDEQLKSGTASVVCLLNNFYPREAKVQWKVDNALQSGNSQESVTEQDSKDSTYSLSSTLTLSKADYEKHKVYACEVTHQGLSSPVTKSFNRGEC
[7]
  Kd: 3200 nM

B9: IL6R-P720/IL6R-L (antibody, human IgG1, kappa)
heavy: QVQLQESGPGLVKPSETLSLTCAVSGHSISHDHAWSWVRQPPGEGLEWIGFISYSGITNYNPSLQGRVTISRDNSKNTLYLQMNSLRAEDTAVYYCARSLARTTAMDYWGEGTLVTVSS[human IgG1 constant region with P238D S324H (EU numbers) not shown]
light: DIQMTQSPSSLSASVGDRVTITCRASQDISSYLNWYQQKPGKAPKLLIYYTSRLHSGVPSRFSGSGSGTDFTFTISSLQPEDIATYYCQQGNTLPYTFGQGTKVEIKRTVAAPSVFIFPPSDEQLKSGTASVVCLLNNFYPREAKVQWKVDNALQSGNSQESVTEQDSKDSTYSLSSTLTLSKADYEKHKVYACEVTHQGLSSPVTKSFNRGEC
[1]
  Relative FcgRIa-binding Activity: 0.034 fold of IL6R-G1d/IL6R-L
[2]
  Relative FcgRIIaR-binding Activity: 0.039 fold of IL6R-G1d/IL6R-L
[3]
  Relative FcgRIIaH-binding Activity: 0.013 fold of IL6R-G1d/IL6R-L
[5]
  Relative FcgRIIIaV-binding Activity: 0.005 fold of IL6R-G1d/IL6R-L
[6]
  Kd: 9.7 nM
[8]
  Relative FcgRIIaR-binding Activity: 21.5 % of IL6R-G1d/IL6R-L
